This note sets out measurements from the BET-seq Pho4 binding data (Le et al. 2018).

This is one part of the list. Values were computed here from the reads of four pooled replicates and scatter widely.

The assay addresses T1, Pho4 (S. cerevisiae) (UniProt P07270).
T1 sequence: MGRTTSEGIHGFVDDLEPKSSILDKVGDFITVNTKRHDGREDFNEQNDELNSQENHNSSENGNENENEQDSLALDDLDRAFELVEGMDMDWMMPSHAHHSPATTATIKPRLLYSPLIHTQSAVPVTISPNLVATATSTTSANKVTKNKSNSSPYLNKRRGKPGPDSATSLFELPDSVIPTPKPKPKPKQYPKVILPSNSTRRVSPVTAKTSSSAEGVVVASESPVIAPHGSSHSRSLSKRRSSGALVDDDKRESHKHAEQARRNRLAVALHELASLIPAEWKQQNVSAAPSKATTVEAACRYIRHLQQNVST
The experiment in a line: relative binding free energy (BET-seq); higher = weaker binding. Conditions: reference: library average.
Turning to TTTGTCACGTGAAGAA, the “relative binding free energy” value came to 0.22 kcal/mol. The result for CTTTACACGTGGTTTG reads 0.1 kcal/mol; that for GCGGGCACGTGTGAGA, 0.08 kcal/mol. Consider TTCTGCACGTGGAGAT, for which the “relative binding free energy” value came to 0.08 kcal/mol. Regarding CTGGTCACGTGGTATG, the “relative binding free energy” value was -0.06 kcal/mol.

Turning to TCGGGCACGTGTGGAT, the “relative binding free energy” value was found to be 0 kcal/mol.

In the case of GTGTTCACGTGACTTG, the “relative binding free energy” value stood at 0.3 kcal/mol. Turning to TAGTCCACGTGGAATG, the “relative binding free energy” value amounted to 0.22 kcal/mol. As for TGACGCACGTGATGGT, the “relative binding free energy” value is -0.09 kcal/mol. The result for AGTCTCACGTGATGTG reads 0.28 kcal/mol; that for ATGGGCACGTGAATTT, 0.18 kcal/mol; that for AGAGTCACGTGGGATT, 0.12 kcal/mol. Regarding CTGATCACGTGTGTAG, the “relative binding free energy” value was 0.01 kcal/mol. In the case of CGATTCACGTGATTGA, the “relative binding free energy” value came out at 0.33 kcal/mol. With TTTTTCACGTGAGTAG the figure was 0.44 kcal/mol. On to TGTGCCACGTGAAGGT, for which the “relative binding free energy” value came out at 0.12 kcal/mol. Consider GGTGTCACGTGAGGTG, for which the “relative binding free energy” value came out at 0.29 kcal/mol. Regarding TTAGGCACGTGTGGCT, the “relative binding free energy” value is -0.04 kcal/mol.

AGGGCCACGTGGTCAG: the “relative binding free energy” value is -0.19 kcal/mol. Regarding TTGCGCACGTGTGTTA, the “relative binding free energy” value was -0.09 kcal/mol.

TGTTGCACGTGGAGCG: the “relative binding free energy” value worked out at 0.04 kcal/mol. For TTTTTCACGTGTGAAT, the “relative binding free energy” value is 0.33 kcal/mol.

Take TGGGGCACGTGGTCAA: the “relative binding free energy” value is -0.22 kcal/mol. For AGGGTCACGTGGAGTC, the “relative binding free energy” value was found to be 0.07 kcal/mol. As to AGTTTCACGTGCGTTT, the “relative binding free energy” value came to 0.26 kcal/mol. In the case of ATGCTCACGTGAGGTG, the “relative binding free energy” value amounted to 0.35 kcal/mol. For CGCGTCACGTGATGGT, the “relative binding free energy” value was determined as 0.18 kcal/mol. For the sequence TCGTGCACGTGTAGCG, the “relative binding free energy” value came out at 0.06 kcal/mol. For the sequence GAGGGCACGTGGTCGG, the “relative binding free energy” value is -0.03 kcal/mol. With CGAGGCACGTGAGCGG the figure was 0.01 kcal/mol; with GGCTTCACGTGGTGGG, 0.31 kcal/mol. The result for AGGAGCACGTGTTTTA reads -0.07 kcal/mol.

Consider AGGTACACGTGCTTTG, for which the “relative binding free energy” value is 0.02 kcal/mol. The result for TTGGGCACGTGTGTAC reads -0.1 kcal/mol; that for TCATTCACGTGTATTG, 0.2 kcal/mol; that for ATACGCACGTGGTTTG, -0.14 kcal/mol. On to TTTTGCACGTGACTGG, for which the “relative binding free energy” value turned out to be 0.02 kcal/mol. Regarding ATTATCACGTGACGAG, the “relative binding free energy” value was determined as 0.3 kcal/mol.

Turning to GGTGGCACGTGCTATT, the “relative binding free energy” value was determined as 0.06 kcal/mol. Take TAGTGCACGTGTTAGG: the “relative binding free energy” value was -0.01 kcal/mol. For GGAATCACGTGGGGCA, the “relative binding free energy” value turned out to be 0.08 kcal/mol. With TCGTCCACGTGTGGTT the figure was 0.24 kcal/mol.

Consider CGTGACACGTGTGGGG, for which the “relative binding free energy” value stood at 0.03 kcal/mol. With GTGTACACGTGGATGG the figure was -0.04 kcal/mol; with ACGGTCACGTGGGTTA, 0.01 kcal/mol; with CGGTTCACGTGTGTTA, 0.2 kcal/mol.

For CTCTGCACGTGTAGGT, the “relative binding free energy” value was -0.06 kcal/mol. GTGTGCACGTGAGCTT: the “relative binding free energy” value came out at 0.29 kcal/mol. Turning to TGTTGCACGTGAGTAA, the “relative binding free energy” value was found to be 0.17 kcal/mol.

Turning to AGAGGCACGTGGGATT, the “relative binding free energy” value was -0.15 kcal/mol. With TGTGTCACGTGTACGG, the “relative binding free energy” value came out at 0.15 kcal/mol. Turning to GGGAACACGTGGCGTA, the “relative binding free energy” value is -0.06 kcal/mol. GTGGTCACGTGATATG: the “relative binding free energy” value came out at 0.15 kcal/mol. With GTTATCACGTGCGGGT the figure was 0.17 kcal/mol. With GGTTGCACGTGTGATC the figure was 0.19 kcal/mol; with AAGTTCACGTGCGGTT, 0.34 kcal/mol; with AGTTGCACGTGGCAAT, -0.01 kcal/mol. As to GTTGTCACGTGTGTAC, the “relative binding free energy” value worked out at 0.22 kcal/mol. With CGGTACACGTGCTTGT, the “relative binding free energy” value is 0.07 kcal/mol. For the sequence TTTTGCACGTGGGGTC, the “relative binding free energy” value is -0.19 kcal/mol. As to TCTTTCACGTGTTATT, the “relative binding free energy” value turned out to be 0.22 kcal/mol.

Turning to ATGGACACGTGTAAAG, the “relative binding free energy” value worked out at 0.1 kcal/mol. For TCGTGCACGTGTGGCG, the “relative binding free energy” value is -0.09 kcal/mol.

With TCTGTCACGTGTGTGA, the “relative binding free energy” value was -0.01 kcal/mol. With ACGGCCACGTGTGGTG the figure was -0.05 kcal/mol. With ATAGGCACGTGGTAAT, the “relative binding free energy” value was -0.25 kcal/mol. With TTAGGCACGTGAGACG, the “relative binding free energy” value was 0.02 kcal/mol.

ATTGGCACGTGAACTG: the “relative binding free energy” value was found to be 0.04 kcal/mol. As for TTGTGCACGTGGATGG, the “relative binding free energy” value was found to be 0.01 kcal/mol. On to GTTTTCACGTGGCGAA, for which the “relative binding free energy” value is 0.28 kcal/mol. As for TGTAGCACGTGTTTTC, the “relative binding free energy” value was -0.03 kcal/mol. Turning to GTCGTCACGTGTGTAG, the “relative binding free energy” value turned out to be 0.1 kcal/mol. In the case of TAAAGCACGTGTGTAG, the “relative binding free energy” value was -0.09 kcal/mol. As for CTGGTCACGTGTTTAG, the “relative binding free energy” value amounted to 0.11 kcal/mol. For TTGGGCACGTGACCGG, the “relative binding free energy” value is -0.08 kcal/mol. The result for TGTCTCACGTGGTGTT reads 0.18 kcal/mol; that for TGTAACACGTGGGGTG, -0.09 kcal/mol; that for CAGTACACGTGTGGTG, 0.14 kcal/mol. For the sequence CGGTGCACGTGGGCCG, the “relative binding free energy” value was -0.13 kcal/mol. With TGAGTCACGTGTGCGT the figure was 0 kcal/mol; with AGGTTCACGTGTTTAG, 0.21 kcal/mol.

For the sequence AGACTCACGTGTGGTT, the “relative binding free energy” value turned out to be 0.39 kcal/mol.

On to TTGATCACGTGAGAGC, for which the “relative binding free energy” value turned out to be 0.4 kcal/mol. As for TGCTACACGTGTTATT, the “relative binding free energy” value came out at 0.07 kcal/mol. Consider ATGATCACGTGGGGTG, for which the “relative binding free energy” value amounted to 0.02 kcal/mol. In the case of TGGTTCACGTGGTCCT, the “relative binding free energy” value came to 0.33 kcal/mol. For GTGGGCACGTGGGAGC, the “relative binding free energy” value was -0.08 kcal/mol. Turning to AAGGGCACGTGTAAGT, the “relative binding free energy” value amounted to 0.02 kcal/mol. In the case of TTCGTCACGTGGTGGG, the “relative binding free energy” value is 0.1 kcal/mol. For the sequence TTTTACACGTGGGCAG, the “relative binding free energy” value is 0.06 kcal/mol.

For the sequence TTGAGCACGTGGATAA, the “relative binding free energy” value was -0.09 kcal/mol. As for CTGAACACGTGGAAGG, the “relative binding free energy” value is 0.21 kcal/mol. For AGGACCACGTGAGGTG, the “relative binding free energy” value is 0.15 kcal/mol. On to TTAGTCACGTGGCTCT, for which the “relative binding free energy” value stood at 0.02 kcal/mol. As to GACGCCACGTGGGAGG, the “relative binding free energy” value is 0.03 kcal/mol. Turning to ACCTGCACGTGGTGGT, the “relative binding free energy” value was -0.18 kcal/mol. As to AATTGCACGTGTCTTG, the “relative binding free energy” value turned out to be 0.11 kcal/mol. For the sequence CTATGCACGTGGATGG, the “relative binding free energy” value is -0.18 kcal/mol. The result for TTATTCACGTGCATAT reads 0.18 kcal/mol; that for TACTTCACGTGGGATG, 0.08 kcal/mol. With CGTTACACGTGCGGGC the figure was 0.21 kcal/mol; with GGGTTCACGTGGAGTT, 0.42 kcal/mol. TCTGACACGTGATGTA: the “relative binding free energy” value is 0.12 kcal/mol. As for GGGTTCACGTGTAGAC, the “relative binding free energy” value came to 0.31 kcal/mol. With AATCGCACGTGGTTAT, the “relative binding free energy” value was -0.02 kcal/mol. For GTTTACACGTGAACTT, the “relative binding free energy” value amounted to 0.4 kcal/mol. Take GGTTTCACGTGTAATT: the “relative binding free energy” value is 0.47 kcal/mol.

With ATACGCACGTGAGTTT, the “relative binding free energy” value was found to be 0.13 kcal/mol. On to TGAAACACGTGGTTCG, for which the “relative binding free energy” value came out at 0.01 kcal/mol.

On to TCAAGCACGTGTTGGG, for which the “relative binding free energy” value came out at 0.02 kcal/mol.

In the case of GAGGGCACGTGAAGAG, the “relative binding free energy” value came to 0.3 kcal/mol. Turning to AGTTACACGTGGATGT, the “relative binding free energy” value turned out to be 0.14 kcal/mol.

For AGGTTCACGTGTGAGT, the “relative binding free energy” value was found to be 0.34 kcal/mol. On to TGATTCACGTGGCCTT, for which the “relative binding free energy” value was 0.23 kcal/mol. Turning to GTAGCCACGTGGGTTG, the “relative binding free energy” value is -0.19 kcal/mol.
